Reference: publication PMC7041945 (2020)

Target: T1, MPZ-ecto peptide (Homo sapiens, UniProt P25189)
T1 chain: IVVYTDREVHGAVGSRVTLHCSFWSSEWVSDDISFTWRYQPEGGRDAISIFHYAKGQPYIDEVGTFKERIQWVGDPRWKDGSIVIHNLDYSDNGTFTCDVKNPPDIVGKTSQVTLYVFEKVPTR
Assay: fluorescence quenching

Kd: 109 µM
B1: DR5 ECD (protein)
chain: not shown
